# Experimental data published in the supplement of paper PMC4723716.
# ± gives the uncertainty stated by the source. Whole data set: some 9,900 compounds, median “viability index relative to DMSO control” near 1, cut for the lowest 2% near 0.85. The list shows a part of the results.
# Tested on: Plasmodium falciparum NF54 stage V gametocytes
# Assay: viability index relative to DMSO control (fraction); higher = less gametocyte killing
# Conditions: 2.5 µM, library set: Broad Institute DOS, incubation time: 72 h
# Method in brief: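 Stage V gametocytes of P. falciparum NF54 were held in serum-free screening medium at 0.75% gametocytemia and 1.25% hematocrit, 10 µl per well of a 1,536-well plate, and exposed to compound at 2.5 µM for 72 hr at 37°C under low oxygen. A 3 µl mix of 2.5 µM MitoTracker Red CMXRos with 0.13% saponin was then added for one to two hours, after which one field per well was imaged and red particles of 20–70 µm2 were counted. The viability index equals this count divided by the plate mean from wells given solvent alone.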
row,SMILES,viability index
1,O=C(c1ccccn1)N1C[C@H]2[C@@H](c3ccccc31)[C@@H](CO)N2C(=O)C1CCCCC1,1.09 ± 0.067
2,COc1ccc(S(=O)(=O)N(C)C[C@H]2Oc3ccc(NC(=O)Cc4cn(C)c5ccccc45)cc3C(=O)N([C@@H](C)CO)C[C@@H]2C)cc1,1.063 ± 0.01
3,CN1C[C@@H]2[C@H](c3ccccc31)[C@H](CO)N2Cc1ccccc1Cl,1.06 ± 0.051
4,COc1ccccc1C(=O)Nc1ccc2c(c1)C(=O)N(C)[C@H]1CC[C@H](CC(=O)Nc3cc(F)ccc3F)O[C@@H]1CO2,1.07 ± 0.15
5,COc1cccc(-c2ccc3n(c2=O)C[C@@H]2[C@@H](CO)[C@H](C(=O)NCC4CC4)[C@H]3N2S(C)(=O)=O)c1,1.039 ± 0.0088
6,C[C@@H]1CN([C@H](C)CO)C(=O)CCCn2nncc2CO[C@@H]1CN(C)C(=O)CCC(F)(F)F,1.04 ± 0.12
7,O=C(C1CCC1)N1C[C@@H]2[C@H](c3ccccc31)[C@H](CO)N2Cc1ccccc1,1.05 ± 0.017
8,C[C@@H]1CCCCO[C@@H](CN(C)C(=O)c2ccncc2)[C@@H](C)CN([C@@H](C)CO)C(=O)c2cc(NC(=O)CCC(F)(F)F)ccc2O1,1.087 ± 0.0063
9,CN(C)C(=O)C[C@@H]1C=C[C@@H](NC(=O)c2ccc(F)cc2)[C@@H](CO)O1,1.08 ± 0.15
10,Cc1cccc(S(=O)(=O)N2CC[C@@H]3[C@H]2c2cc(-c4ccccc4F)ccc2N[C@@H]3CO)c1,0.926 ± 0.08
11,CO[C@H]1CN(C)C(=O)c2cc(NC(=O)C3CCOCC3)ccc2OC[C@H](C)NC[C@H]1C,0.947 ± 0.054
12,CN1CCN(C(=O)C[C@@H]2CC[C@H]3[C@H](COc4ccc(NC(=O)c5cccs5)cc4C(=O)N3C)O2)CC1,1.09 ± 0.048
13,O=C(C[C@H]1CC[C@@H](NC(=O)C2CC2)[C@@H](CO)O1)Nc1ccccc1,0.986 ± 0.12
14,CCC(=O)N1C[C@H](C)[C@@H](OC)CN(C)C(=O)c2cc(NC(=O)Nc3ccc(Cl)cc3)ccc2OC[C@@H]1C,1.04 ± 0.024
15,C[C@@H]1CN([C@@H](C)CO)C(=O)c2cc(-c3ccncc3)cnc2O[C@H]1CN(C)C(=O)CN1CCOCC1,1.008 ± 0.006
16,CO[C@H]1CN(C)C(=O)c2ccc(NC(=O)Nc3ccccc3F)cc2OC[C@H](C)N(CC2CC2)C[C@H]1C,0.9705 ± 0.006
17,COCCNC(=O)C[C@@H]1CC[C@H]2[C@@H](COc3ccc(NS(=O)(=O)c4ccc(Cl)cc4)cc3C(=O)N2C)O1,1.09 ± 0.06
18,O=C(N[C@H]1C=C[C@@H](CC(=O)N2CCC(Cc3ccccc3)CC2)O[C@H]1CO)c1cnccn1,0.904 ± 0.15
19,CN1C(=O)c2cc(NC(=O)Cc3cccs3)ccc2OC[C@H]2O[C@H](CC(=O)N[C@H]3CCN(Cc4ccccc4)C3)CC[C@@H]21,1.06 ± 0.08
20,CNC[C@@H]1Oc2c(NC(=O)Nc3cccc4ccccc34)cccc2C(=O)N([C@@H](C)CO)C[C@H]1C,0.928 ± 0.02
21,CC(C)CC#Cc1ccc([C@@H]2[C@@H](CO)N3C(=O)CN(S(=O)(=O)c4cccc(F)c4)C[C@H]23)cc1,0.9179 ± 0.008
22,CCCN1C[C@H](C)[C@@H](OC)CN(C)C(=O)c2cc(NC(=O)Nc3cccc(F)c3)ccc2OC[C@H]1C,0.949 ± 0.1
23,C/C=C/c1ccc([C@@H]2[C@H]3CNC[C@@H]2N3C(=O)Nc2ccc3c(c2)OCO3)cc1,1.085 ± 0.0098

row,SMILES,viability index
1,O=C(C[C@@H]1C=C[C@@H](NS(=O)(=O)c2ccc(F)cc2)[C@@H](CO)O1)N1CCc2ccccc2C1,0.96 ± 0.069
2,CO[C@H]1CN(C)C(=O)c2ccc(NC(C)=O)cc2OC[C@H](C)N(Cc2cccc(F)c2)C[C@@H]1C,1.05 ± 0.068
3,COc1ccccc1NC(=O)N1C[C@H](O)COC[C@H]2O[C@@H](CC(=O)N3CCC(Cc4ccccc4)CC3)CC[C@@H]21,1.03 ± 0.083
4,COc1cccc(S(=O)(=O)N2CCCCN3[C@@H](CO)[C@@H](c4ccc(C#CCC(C)C)cc4)[C@@H]3C2)c1,0.393 ± 0.021
5,COc1cccc(NC(=O)C[C@@H]2CC[C@@H]3[C@H](COc4ccc(NS(=O)(=O)c5cccc(F)c5)cc4C(=O)N3C)O2)c1,1.16 ± 0.12
6,C[C@@H]1CN([C@H](C)CO)C(=O)Cc2cc(NC(=O)c3ccncc3)ccc2O[C@@H]1CN(C)C(=O)Nc1ccc(F)cc1,1 ± 0.11
7,CC(C)NC(=O)N1[C@@H]2CNC[C@H]1[C@H]2c1ccc(/C=C/c2ccccc2)cc1,1.03 ± 0.071
8,C/C=C/c1ccc2n(c1=O)C[C@@H]1[C@@H](CO)[C@H](C(=O)NCC(F)(F)F)N(C(=O)c3cccnc3)[C@H]21.C/C=C\c1ccc2n(c1=O)C[C@@H]1[C@@H](CO)[C@H](C(=O)NCC(F)(F)F)N(C(=O)c3cccnc3)[C@H]21,1.07 ± 0.063
9,CO[C@H]1CN(C)C(=O)c2ccc(NC(=O)c3cc(C)on3)cc2OC[C@@H](C)NC[C@@H]1C,1 ± 0.019
10,O=C(C1CCOCC1)N1C[C@H]2[C@@H](c3ccccc31)[C@@H](CO)N2C(=O)Nc1ccccc1F,1.03 ± 0.063
11,COc1ccc(NC(=O)N(C)C[C@H]2Oc3ccc(NC(=O)CCN4CCOCC4)cc3C(=O)N([C@H](C)CO)C[C@@H]2C)cc1,1.02 ± 0.043
12,N#C[C@@H]1[C@H](c2ccc(C#Cc3ccccc3F)cc2)[C@@H](CO)N1C(=O)c1cccnc1,1.02 ± 0.071
13,C[C@@H](O)C#Cc1ccc([C@H]2[C@@H](CO)N3CCCCN(C(=O)c4ccc5c(c4)OCO5)C[C@H]23)cc1,1.06 ± 0.063
14,C[C@H](CO)N1C[C@H](C)[C@H](CN(C)C(=O)C2CCCCC2)OCCCC[C@H](C)Oc2ccc(NS(=O)(=O)c3ccccc3)cc2C1=O,1.02 ± 0.078
15,O=C(Cc1ccccc1)N1CC[C@@H]2[C@H](CO)Nc3ccc(C#Cc4cccc(F)c4)cc3[C@@H]21,1.07 ± 0.066
16,CO[C@@H](CN(C)S(=O)(=O)c1ccc(C)cc1)[C@H](C)CN(C(=O)Nc1ccccc1F)[C@H](C)CO,0.978 ± 0.083
17,Cc1noc(C)c1NC(=O)Nc1ccc2c(c1)C(=O)N(C)[C@H]1CC[C@@H](CC(=O)N[C@@H]3CCN(Cc4ccccc4)C3)O[C@@H]1CO2,1.08 ± 0.067
18,CO[C@H]1CN(C)C(=O)c2ccc(NC(=O)NC(C)C)cc2OC[C@H](C)N(Cc2ccc(-c3ccccn3)cc2)C[C@H]1C,1.02 ± 0.045
19,COCC(=O)N1[C@H](CO)[C@@H]2c3ccccc3N(C(=O)Nc3ccccc3Cl)C[C@@H]21,1.01 ± 0.028
20,CCCNC(=O)C[C@H]1CC[C@@H]2[C@H](COC[C@H](O)CN2Cc2ccncc2)O1,1.03 ± 0.062
21,N#C[C@@H]1[C@H](c2ccc(-c3cccc(F)c3)cc2)[C@@H](CO)N1C(=O)NC1CCCC1,0.9966 ± 0.0022
22,COc1ccc2c3c([C@@H](CO)N(C[C@]33CN(C3)C(=O)Cc3ccncc3)C(=O)Nc3ccc(F)cc3)n(C)c2c1,0.974 ± 0.085
23,O=C(C[C@@H]1CC[C@H]2[C@@H](COC[C@@H](O)CN2C(=O)c2cc(Cl)cc(Cl)c2)O1)N1CCc2ccccc2C1,0.985 ± 0.06

row,SMILES,viability index
1,CO[C@H]1CC[C@H]2CCOc3c(C#N)cccc3C(=O)N(C)CCCC(=O)N(C)C[C@H]1O2,1.06 ± 0.03
2,CN1c2ccc(-c3cccc(C#N)c3)cc2[C@H]2[C@H](CCN2C(=O)Cc2ccccn2)[C@H]1CO,1.09 ± 0.012
3,N#C[C@@H]1[C@@H](c2ccccc2C2=CCCCC2)[C@H](CO)N1C(=O)c1ccccn1,1.03 ± 0.089
4,COCC(=O)NC[C@H]1[C@@H](c2ccccc2)[C@@H](CO)N1C(=O)c1ccccc1,0.966 ± 0.074
5,CC(C)NC(=O)N1[C@H](CO)[C@H]2c3ccccc3NC[C@H]21,0.959 ± 0.042
6,CCCN(C)C[C@@H]1Oc2cc(/C=C/c3ccccc3)ccc2S(=O)(=O)N([C@H](C)CO)C[C@@H]1C,0.9475 ± 0.00097
7,Cc1noc(C)c1S(=O)(=O)N(C)C[C@H]1OCc2ccccc2-c2c(n(C)c3ccccc23)C(=O)N([C@@H](C)CO)C[C@@H]1C,1.01 ± 0.094
8,CN1C(=O)c2cc(NC(=O)Cc3cccs3)ccc2OC[C@H]2O[C@H](CC(=O)NCc3ccc(-c4ccccc4)cc3)CC[C@@H]21,1.15 ± 0.1
9,O=C(C[C@@H]1C[C@H]2c3cc(NC(=O)Nc4ccccc4F)ccc3O[C@H]2[C@H](CO)O1)NCc1ccccn1,1.07 ± 0.032
10,CO[C@H](CN(C)C(=O)C1CCOCC1)[C@H](C)CN(C(=O)Nc1ccc(C(F)(F)F)cc1)[C@@H](C)CO,0.948 ± 0.098
11,N#C[C@@H]1[C@H](c2ccccc2)[C@@H](CO)N1S(=O)(=O)c1cccc(F)c1,1.02 ± 0.0084
12,COc1ccccc1-c1ccccc1[C@H]1[C@@H](C#N)N(C(=O)CN(C)C)[C@@H]1CO,1.14 ± 0.11
13,CCS(=O)(=O)N1CC[C@@]2(CC1)CN([C@@H](CO)c1c2c2ccc(OC)cc2n1C)C(=O)c1cccc(F)c1,1.02 ± 0.079
14,O=C(C[C@@H]1C[C@@H]2c3cc(NC(=O)c4ccc5c(c4)OCO5)ccc3O[C@@H]2[C@@H](CO)O1)NCCN1CCCCC1,1.069 ± 0.0014
15,Cc1noc(C)c1S(=O)(=O)N(C)C[C@@H]1OCCCC[C@@H](C)Oc2ccc(NS(=O)(=O)c3cn(C)cn3)cc2C(=O)N([C@H](C)CO)C[C@@H]1C,1.11 ± 0.14
16,C[C@H](CO)N1C[C@H](C)[C@H](CN(C)C(=O)C2CCOCC2)Oc2ncc(-c3cccc(C#N)c3)cc2C1=O,1.09 ± 0.028
17,CO[C@H]1CN(C)C(=O)c2ccc(NC(=O)Nc3ccccc3)cc2OC[C@@H](C)N(C(=O)CC2CC2)C[C@@H]1C,1.07 ± 0.041
18,CC(=O)N1[C@H](CO)[C@H](c2ccccc2)[C@@H]1CN(C)S(=O)(=O)c1ccccc1,1 ± 0.033
19,CCCNC(=O)C[C@@H]1CC[C@H]2[C@@H](COC[C@@H](O)CN2Cc2ccncc2)O1,0.968 ± 0.11
20,C[C@@H]1CN([C@H](C)CO)C(=O)c2ccccc2-c2ccccc2CO[C@@H]1CN(C)Cc1ccc(Oc2ccccc2)cc1,1.028 ± 0.0055
21,COCCNC(=O)C[C@@H]1CC[C@H]2[C@@H](COC[C@H](O)CN2Cc2ccc(Cl)c(Cl)c2)O1,1.1 ± 0.053
22,COCC(=O)N1C[C@]2(CCN(CC2)C(=O)c2cccnc2)c2c([nH]c3cc(OC)ccc23)[C@H]1CO,1.02 ± 0.016
23,CC(C)C#Cc1ccc([C@@H]2[C@@H](C#N)N(C(=O)c3cccc(F)c3)[C@@H]2CO)cc1,1.03 ± 0.077
